# Results reported in the supplement of paper PMC3334620.
# The full ranking holds about 33,000 sequences; the median of “E-score (-0.5 to 0.5)” is about -0.016, and the highest 2% start at about 0.31. This is one part of the list.
# Biological target: Cst6 (UniProt P40535)
# Assay: PBM E-score (8-mer binding enrichment) (E-score (-0.5 to 0.5)); higher = stronger / more preferred TF binding; most listed sequences are background and not binding sites
# Settings: protein concentration: 200 nM; construct: GST-DNA-binding domain
# Procedure, shortened: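 Bound GST-tagged yeast transcription factors, applied at about 100-200 nM to double-stranded universal all-10-mer Agilent arrays, were detected with fluorescent anti-GST. Scans were normalised with masliner. A modified Wilcoxon-Mann-Whitney statistic, the E-score, was assigned to each ungapped eight-base word pooled with its reverse complement by the Universal PBM Analysis Suite.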
row,Sequence,PBM E-score
1,GTCCAGAC,-0.301
2,CAGGGTAG,-0.221
3,AGTCTACG,-0.232
4,AGCAACAC,0.068
5,GGTCCACC,-0.251
6,GAGTTGCA,-0.143
7,CTCGAATA,-0.156
8,CCGCACAA,0.0801
9,ATGCACCG,-0.219
10,AAAGAATT,0.16
11,ACACGCGC,0.07
12,CTAAGGCA,-0.0149
13,AATCGTAG,0.0692
14,CGTCCCAC,0.0468
15,AAGGTAGA,-0.0519
16,AGATTTAA,0.0599
17,CACAGGTG,-0.0326
18,CTGCCCAA,-0.183
19,GTTGACAA,0.23
20,AACTACCC,-0.182
21,ATACGTGC,0.106
22,GCCCCCAA,-0.162
23,ACATTGGT,-0.0917
24,GGTAGAAC,-0.129
25,ACTATAAG,0.0701

row,Sequence,PBM E-score
1,GAGGTGGC,-0.11
2,CGACCGCA,-0.211
3,AATGACTA,0.041
4,AAGATGAT,0.229
5,ATGTGGGG,-0.237
6,AGCTGTAG,-0.119
7,CCTCGCTC,0.145
8,TGGTTCAA,0.0678
9,ACGTGACT,0.00931
10,CCTAGCAA,-0.12
11,GACACGAC,0.0635
12,CAAAGAGG,-0.0684
13,GATTCATA,0.106
14,AATCGACT,-0.114
15,CTAGGAGC,-0.218
16,CAATAGCC,-0.0299
17,ACATAGAG,0.00815
18,CAGGAAGA,-0.0433
19,ACGTCTGA,0.14
20,ACAATGCT,-0.0195
21,CTGACACC,-0.166
22,ACGGACCA,0.0335
23,ATCATATA,0.299
24,CCACAATC,-0.135
25,CTCCTATA,-0.222

row,Sequence,PBM E-score
1,CGTGCCTC,0.162
2,TAAGGACA,0.0193
3,GCACTTAC,0.168
4,GAACTGAA,0.0836
5,AGTCCGGC,-0.0764
6,CTCCCGTA,-0.275
7,AGCCGAAA,-0.053
8,CGCTGACA,0.166
9,GGCTTGCA,0.00048
10,GTGCTAAC,-0.0346
11,AATTTACC,0.0689
12,TGGATTAA,0.0667
13,AGAGGTCG,-0.12
14,AGCTTTTC,-0.00677
15,CTTGTAAC,0.147
16,AGGTTACG,0.0832
17,CTCGAGTA,-0.0335
18,TCCTGCGA,-0.0512
19,ATGCTTTA,0.0449
20,GGCGCGCA,0.0653
21,CGGAGGTA,-0.282
22,CTCCTCAG,-0.231
23,GTCATCGA,0.348
24,TCCGTCGA,-0.0429
25,TCGAAACA,0.181

row,Sequence,PBM E-score
1,CTTCCAGC,-0.0967
2,CTATAAGA,-0.0156
3,GCCCTTAC,-0.228
4,ACCACCAG,-0.0729
5,CAGGGGCC,-0.187
6,ACTCGAGA,-0.0827
7,GCGGGCAC,-0.0755
8,ACCTGGGA,-0.137
9,CAGTTTAA,0.0613
10,CTTTTGGC,0.0121
11,AATGCAAC,0.19
12,ATACTTAA,0.118
13,TAATTCGA,0.0188
14,CTGACATC,0.307
15,ATTTCAGC,0.00693
16,CCGCAGTA,-0.0737
17,ACATTAGT,-0.0516
18,GTAAGCAA,0.0453
19,TACGAGGA,-0.141
20,AATACTTA,0.032
21,CGCATCTA,0.145
22,CATGTCCC,-0.15
23,AAATTATG,0.164
24,ACCCGCTA,-0.249
25,AGAAGTAA,0.216

row,Sequence,PBM E-score
1,ATTCTGTA,0.0162
2,CGACACCC,-0.126
3,AAGTGGTC,-0.0188
4,CTGCCATC,-0.0826
5,GAGGTACC,-0.281
6,AATCAGTG,0.0564
7,AATGATGC,0.347
8,AGCAAAAC,0.032
9,AGTTTGGG,0.0894
10,AGCGGATC,-0.0207
11,CGGATTGA,0.0224
12,AACGTGAC,0.274
13,CGGTAGAA,-0.204
14,ATTGACGG,0.121
15,CCGTTAAG,0.0867
16,GATCAGCC,-0.212
17,TGCAATAA,0.167
18,ATAGTATC,0.218
19,AATGGACC,0.0576
20,AGCAAGTA,0.0438
21,ACCTGATG,-0.00795
22,AAAACGCA,0.0107
23,ACATTTGC,0.0837
24,ACAGAATG,0.105
25,ACAACCCG,-0.045

row,Sequence,PBM E-score
1,GGCCGCTA,-0.232
2,AATTCGGG,-0.0904
3,AAAGCCAG,-0.141
4,CTGAGGAA,-0.183
5,CTGCTATC,-0.00541
6,GGTCTTGA,-0.0828
7,AGGGTTAA,-0.168
8,ACACTACT,0.0264
9,CGAATCCC,-0.158
10,AAATTCAA,0.201
11,CATCCTAA,0.0973
12,TGACTTAA,0.266
13,ACACAAGC,-0.0117
14,ATACCCAT,-0.0474
15,CTTTGTAC,-0.103
16,AACACGTG,0.136
17,ACTGCCAG,-0.118
18,GGTCTTAA,-0.198
19,CTAGGCCA,-0.233
20,TCTTGAAA,0.195
21,CATGACAA,0.14
22,GAGAATAC,0.144
23,CCGCATGA,0.189
24,CCCCGTCC,-0.437
25,AAGCCGCG,0.1

row,Sequence,PBM E-score
1,CAGCCAGG,-0.147
2,ACGCCATA,0.232
3,CCTCTAGC,-0.078
4,ACCGTAGA,-0.00945
5,AACCACCG,-0.0655
6,ACGCGGAA,0.167
7,CTATCGAA,0.0969
8,GTACTTCA,0.27
9,AGCACTCA,-0.118
10,GACATTTA,0.115
11,CATCATCA,0.409
12,AAGGGCGG,-0.153
13,CGTACACG,0.118
14,CATGCAAA,0.142
15,CATCTCAG,-0.00804
16,ACGACACC,0.036
17,CAGCTGCG,-0.169
18,CACCATAG,-0.0555
19,CATAACAC,0.121
20,CCAACCTA,-0.103
21,GGCCAAAA,0.191
22,AGATGCGG,0.103
23,GACTTGGA,-0.251
24,CGACGAAA,0.12
25,CGGTCTGC,-0.138

row,Sequence,PBM E-score
1,AATTCCAT,0.148
2,ATTGTCCC,-0.167
3,GATAACCC,-0.286
4,ACCCGGTG,-0.0713
5,CAAATGGC,0.0947
6,ACGATGAA,0.154
7,CGTTGGAC,-0.122
8,AAAGAAGA,-0.0462
9,ACGGTGGC,-0.0174
10,CCGGTATC,-0.257
11,AACGCAGG,-0.251
12,GACACGTC,0.202
13,CTTCAAGA,0.0345
14,GATATTAA,0.201
15,AGCGAGCG,-0.0518
16,GATCTTAC,0.0127
17,GCTGAAGC,-0.00722
18,CTCTCTTC,-0.239
19,AAGCTCAA,-0.049
20,AACTTTAG,0.217
21,AATACACG,0.0759
22,CGAGGCGA,0.0832
23,AGCCCTCC,-0.323
24,AGGCGGAC,-0.288
25,CGACATGC,0.118

row,Sequence,PBM E-score
1,AGTTACGA,0.209
2,ATGTATAG,0.0703
3,CACCGGCA,-0.178
4,CTGCGTCA,0.428
5,AGTTCGTC,0.125
6,ATTGCCTA,-0.141
7,CGCGTCCC,-0.158
8,ACTGGGCT,-0.336
9,AGTAATTG,0.166
10,GTTAAGGA,0.0778
11,CTTGCCTA,-0.0716
12,AGACTGAC,0.0529
13,GCACGCGC,0.0129
14,ACGAGATC,0.00599
15,AGGCTTCG,-0.164
16,ACGCTCCG,-0.119
17,GATCTTAA,0.0924
18,ACCCGATC,-0.0348
19,AAGTGCAG,-0.149
20,CACCTAGG,-0.333
21,CTAGCATC,-0.102
22,ACAACTGT,-0.0486
23,CGGGACGC,-0.201
24,AAGAGCTC,-0.237
25,AAGAGGGT,-0.156

row,Sequence,PBM E-score
1,AGTCAATC,0.0291
2,AGTGCCTA,-0.00266
3,ACTGCGAG,-0.12
4,AATTTGGG,0.051
5,ATCCCAAT,0.0876
6,AGAGCGCA,-0.349
7,AACTCGAC,-0.0524
8,CTTTCGGA,-0.108
9,GAGCATTA,-0.0547
10,AGGAACGC,-0.189
11,ACGTGCAC,0.198
12,GCCTGAGC,-0.0175
13,ACTACGGG,-0.254
14,GTGGCAAA,-0.0838
15,ATGGGGGG,-0.299
16,CTCTCTAA,-0.138
17,ATCTCCTA,-0.191
18,CTGAGCCC,-0.301
19,ACTACACC,-0.0106
20,AGGTCTCC,-0.237
21,CAATAGAA,-0.051
22,AATTCTTG,0.185
23,AGTCGCAC,-0.19
24,AGTGAGTG,-0.00041
25,CGATTCCC,-0.121

row,Sequence,PBM E-score
1,AGCCGCCC,-0.116
2,CTATACTC,-0.236
3,CTCGCGGC,0.0818
4,CGTGTAGC,-0.187
5,CCGAACAG,-0.0529
6,ACTCTAAC,-0.0916
7,GATGAATC,0.0177
8,ACAAAATA,0.206
9,CTTGAACC,-0.0465
10,AATATATT,0.355
11,TCACAGAA,0.133
12,GACAGCCA,-0.186
13,CCATAAAA,0.123
14,ACAATATG,0.179
15,ACATCACC,0.417
16,AACGCCTG,-0.0407
17,CACTTACG,0.351
18,GCCAGTGA,0.0519
19,CGCTGAAC,-0.0202
20,AACGACGC,-0.094
21,ATCCCTTC,-0.062
22,ACTCTCCA,-0.101
23,CGCCCAAA,-0.0345
24,CAACCCGC,-0.0646
25,GCGCGCGC,0.345

row,Sequence,PBM E-score
1,GGCCCTAC,-0.408
2,GACCCCTC,-0.314
3,GACCACAC,-0.126
4,CCTGAAAG,0.0136
5,AGGCAACG,-0.0115
6,GATTGGTA,-0.0377
7,CTTTGTGA,0.0351
8,CCTTCTCA,-0.0671
9,AGCTTTGA,-0.0152
10,CGGAAGTC,-0.0996
11,ACCCGGCC,-0.237
12,AAAGAGTA,0.174
13,CCGTAGTA,-0.0994
14,GGCTTCAA,-0.1
15,ATACTGAT,0.268
16,GCTGAACA,-0.0724
17,CCTCGAAG,0.0886
18,ATAAAGTC,0.207
19,AGGTTATA,0.0265
20,AGAAGGCT,-0.238
21,GGGAGTGA,0.0473
22,CCTGACCC,-0.235
23,TACGGTAA,0.264
24,CAGCGCTA,-0.0215
25,CTAACCAA,0.0449

row,Sequence,PBM E-score
1,CAGGGTAC,-0.18
2,CAGCCGGC,-0.0906
3,AACCCGAT,0.067
4,CTCTGAGC,-0.185
5,AAAGGACC,-0.185
6,GGTCCACA,-0.209
7,AACACTCG,0.0139
8,CTGGCCCC,-0.294
9,CTACTGGC,-0.194
10,CTCCAGCA,-0.144
11,ATGACCAA,0.189
12,AATAGCGC,0.0638
13,AGTTAAAA,0.26
14,GCCCCTAC,-0.153
15,GGATAGCC,-0.184
16,ACAAGGTA,-0.00222
17,CCGAACAC,-0.00678
18,GTAGTCAA,0.14
19,CGGGAACC,-0.338
20,AAGTGTTC,0.0462
21,AAGTATGA,0.197
22,TCGTAAGA,0.00239
23,GTGTAACA,0.051
24,AAGAGAAT,0.098
25,ATTGCTAC,-0.113

row,Sequence,PBM E-score
1,TCGACGCA,0.0326
2,CATTAAGC,0.00686
3,CTGTCATC,0.186
4,GTATATAC,0.0155
5,AAACTCCG,-0.128
6,ACCTTTAA,0.0501
7,AAATGAGG,0.0632
8,ATGTCGAC,0.15
9,GCCTCGCC,-0.122
10,GTCATGAA,0.268
11,AATGTGAT,0.204
12,CTCGTCCA,0.0723
13,AAGATCGA,0.023
14,AGGGTGTA,-0.125
15,AGGCTACT,-0.187
16,AGCGCACC,-0.215
17,GATTCACC,-0.0601
18,GTCGACCA,-0.167
19,ACGGTCGC,-0.136
